From the supplement of paper PMC7826260
The other results are listed elsewhere or left out. Viral Rep nickase domains cut single-stranded DNA in vitro at 3 µM enzyme and 37 °C for 1 h; the strands have 90 letters, of which the middle is given. The score is log2 (uncut reads / reads without enzyme); uncut sequences lie near 0, cut ones below; no hit call is given. Shares of all reads are compared; uncut strands gain when others are lost, and binding without cutting may add a little.

Assays:
Assay in all cases: uncleaved DNA left, log2 of reads against the no-enzyme library (log2 ratio); higher = less cleavage (more negative = more Rep cleavage of the k-mer); sequences stand for … in CTCGTCCG…ACCGGAGA
[1] = system: T1, Rep nickase domain of Muscovy duck circovirus
T1 sequence (protein, residues 1-111, tag omitted): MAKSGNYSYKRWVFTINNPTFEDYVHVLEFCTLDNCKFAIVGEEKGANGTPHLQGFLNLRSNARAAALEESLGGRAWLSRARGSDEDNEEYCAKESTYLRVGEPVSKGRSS
Protocol: (§1)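 A pool of 90-nt single-stranded DNAs with seven random bases just before the constant AC of the nick site (name = the seven bases) was cut by 3 µM recombinant His6-SUMO-tagged Rep nickase domain (300 nM DNA, 50 mM HEPES pH 8.0, 50 mM NaCl, 1 mM MnCl2, 1 h, 37 °C, three replicates). Uncut DNA was amplified and sequenced.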

[2] = system: T2, Rep nickase domain of banana bunchy top virus
T2 sequence (protein, residues 1-94, tag omitted): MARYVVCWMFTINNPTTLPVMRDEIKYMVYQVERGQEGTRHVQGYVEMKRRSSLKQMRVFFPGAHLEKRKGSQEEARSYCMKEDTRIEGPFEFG
Protocol: as §1

[3] = system: T3, Rep nickase domain of cabbage leaf curl virus
T3 sequence (protein, residues 1-116, tag omitted): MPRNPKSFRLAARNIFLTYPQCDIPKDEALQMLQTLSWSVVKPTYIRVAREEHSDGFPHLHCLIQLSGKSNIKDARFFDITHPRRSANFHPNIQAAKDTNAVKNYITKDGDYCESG
Protocol: as §1

[4] = system: T4, Rep nickase domain of chickpea chlorotic dwarf virus
T4 sequence (protein, residues 1-124, tag omitted): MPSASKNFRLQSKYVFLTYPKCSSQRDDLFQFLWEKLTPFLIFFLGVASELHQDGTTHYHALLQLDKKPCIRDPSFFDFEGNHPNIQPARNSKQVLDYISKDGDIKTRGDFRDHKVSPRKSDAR
Protocol: as §1

[5] = system: T5, Rep nickase domain of faba bean necrotic yellows virus
T5 sequence (protein, residues 1-98, tag omitted): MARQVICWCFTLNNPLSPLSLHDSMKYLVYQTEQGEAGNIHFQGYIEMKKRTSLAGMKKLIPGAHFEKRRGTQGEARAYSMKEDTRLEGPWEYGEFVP
Protocol: as §1

[6] = system: T6, Rep nickase domain of maize striate mosaic virus
T6 sequence (protein, residues 1-117, tag omitted): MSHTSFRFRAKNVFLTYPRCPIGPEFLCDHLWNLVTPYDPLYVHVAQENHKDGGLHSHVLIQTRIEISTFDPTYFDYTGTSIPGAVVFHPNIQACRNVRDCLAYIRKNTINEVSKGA
Protocol: as §1

[7] = system: T7, Rep nickase domain of porcine circovirus 2
T7 sequence (protein, residues 2-116, tag omitted): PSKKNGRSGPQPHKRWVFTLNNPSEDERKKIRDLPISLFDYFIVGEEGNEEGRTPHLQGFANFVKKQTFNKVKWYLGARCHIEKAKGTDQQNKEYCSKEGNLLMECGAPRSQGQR
Protocol: as §1

[8] = system: T8, Rep nickase domain of tomato golden mosaic virus
T8 sequence (protein, residues 1-124, tag omitted): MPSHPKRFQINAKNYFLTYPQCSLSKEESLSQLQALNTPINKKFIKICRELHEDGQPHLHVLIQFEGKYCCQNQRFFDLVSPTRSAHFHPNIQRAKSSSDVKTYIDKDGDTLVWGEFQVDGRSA
Protocol: as §1

[9] = system: T9, Rep nickase domain of tomato yellow leaf curl virus
T9 sequence (protein, residues 1-136, tag omitted): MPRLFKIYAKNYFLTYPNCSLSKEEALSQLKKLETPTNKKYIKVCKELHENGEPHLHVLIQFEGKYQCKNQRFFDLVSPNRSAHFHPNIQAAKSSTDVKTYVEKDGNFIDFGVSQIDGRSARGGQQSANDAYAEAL
Protocol: as §1

[10] = system: T10, Rep nickase domain of wheat dwarf virus
T10 sequence (protein, residues 1-137, tag omitted): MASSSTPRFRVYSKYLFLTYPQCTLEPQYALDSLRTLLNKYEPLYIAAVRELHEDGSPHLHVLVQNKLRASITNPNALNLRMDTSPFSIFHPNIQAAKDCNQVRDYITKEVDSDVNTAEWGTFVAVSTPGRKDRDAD
Protocol: as §1

Sequence | uncleaved DNA left (log2) [1] | uncleaved DNA left (log2) [2] | uncleaved DNA left (log2) [3] | uncleaved DNA left (log2) [4] | uncleaved DNA left (log2) [5] | uncleaved DNA left (log2) [6] | uncleaved DNA left (log2) [7] | uncleaved DNA left (log2) [8] | uncleaved DNA left (log2) [9] | uncleaved DNA left (log2) [10]
CGAAATT | 0.199 | 0.0892 | 0.0592 | -1.85 | 0.0874 | -0.509 | -0.643 | 0.0856 | 0.175 | 0.0789
GTTGATC | 0.072 | -0.0745 | 0.344 | 0.82 | -0.00641 | 1.33 | 0.022 | -0.0848 | -0.0624 | 0.0288
AGACTAC | 0.0745 | -0.108 | 0.159 | -0.125 | -0.0511 | 1.05 | 0.042 | -0.274 | -0.0228 | -0.13
TACTGAT | -2.49 | -0.588 | -1.49 | -1.8 | 0.13 | 0.875 | -3.62 | -0.256 | -0.138 | -0.0493
ATCCCCG | 0.0125 | -0.0555 | -0.788 | -0.00896 | 0.0112 | -1.07 | 0.0349 | -0.0247 | -0.0146 | -0.0928
GCTTTTG | 0.0238 | -0.109 | -0.352 | -0.0184 | -0.0853 | -0.917 | 0.078 | -0.0826 | -0.000572 | -0.0341
GACGGTT | -0.000489 | -0.242 | 0.171 | -0.161 | -0.165 | 1.05 | -0.227 | -0.0589 | -0.306 | -0.00537
TTCAGCT | -0.0826 | -0.119 | -0.364 | -1.46 | -0.0215 | -1.1 | -0.0494 | -0.0864 | -0.0209 | -0.0882
ACCGCTT | -0.162 | -0.14 | -0.407 | -1.91 | -0.0827 | -0.721 | -0.106 | -0.0347 | -0.18 | -0.287
GTGTGCG | -0.0498 | -0.0199 | -0.496 | 0.817 | -0.0692 | 0.0649 | 0.171 | -0.115 | -0.124 | -0.0872
CAGCATT | 0.075 | -0.268 | -0.477 | -2.56 | -0.282 | -0.326 | -3.3 | -0.19 | -0.0293 | -0.0611
GGACCTC | 0.0443 | 0.116 | 0.512 | 1.23 | -0.0338 | 1.75 | 0.177 | -0.0334 | 0.124 | 0.171
TAGTCTG | 0.0544 | -0.0282 | -0.000459 | 0.641 | -0.0481 | 1.14 | -1.01 | 0.0461 | -0.14 | 0.00264
TTCTGGT | -0.263 | -0.0234 | 0.254 | 0.219 | 0.0353 | 0.714 | -1.17 | 0.0613 | 0.16 | 0.0513
AGTACAA | 0.169 | 0.0653 | 0.228 | 0.338 | 0.00141 | 0.197 | -0.395 | 0.00177 | 0.114 | 0.185
CACGTCG | 0.0121 | -0.0539 | -0.789 | -0.203 | 0.0806 | -0.862 | 0.167 | -0.0612 | -0.0233 | -0.156
AACCTCC | -0.153 | 0.0154 | 0.113 | -0.481 | 0.0183 | 0.533 | -0.0895 | 0.0883 | 0.0348 | -0.0216
CCACCTT | -0.0967 | -0.0565 | -0.244 | -2.34 | -0.0476 | -0.404 | -0.499 | -0.0436 | 0.0717 | -0.125
GGTAGCT | -0.00265 | -0.0178 | 0.396 | 0.788 | -0.0242 | 0.935 | 0.0562 | -0.0984 | -0.0462 | 0.0191
CCGTATG | 0.213 | 0.17 | -0.135 | -0.195 | 0.174 | -0.49 | 0.283 | 0.104 | 0.134 | 0.0082
TATGTCG | -0.0126 | -0.0942 | -0.891 | 0.186 | 0.0772 | -1.03 | 0.00918 | -0.152 | -0.0391 | -0.136
ATTTTTT | -3.14 | -2.99 | -0.115 | -2.67 | 0.0935 | -0.773 | -3.25 | 0.0308 | -0.0552 | -0.0478
AGCAAGG | 0.15 | 0.185 | 0.102 | 0.747 | 0.0729 | 1.56 | 0.249 | 0.229 | 0.0928 | 0.253
CCGGTTT | -0.133 | -0.174 | 0.202 | 0.0926 | -0.116 | 1.46 | -0.0974 | 0.0263 | -0.161 | -0.228
AGGAACA | -0.00337 | 0.0504 | 0.273 | 0.314 | -0.16 | 1.12 | -0.00453 | -0.00353 | -0.0192 | 0.121
ACACGGA | 0.0487 | -0.0296 | -0.26 | -0.0315 | -0.01 | -0.66 | 0.0663 | 0.105 | -0.0386 | 0.0175
GGGGGGA | 0.0334 | -0.00997 | 0.893 | 1.75 | 0.0338 | 2.15 | 0.238 | 0.0678 | -0.000559 | 0.209
TTGAAGA | 0.0223 | -0.0916 | -0.175 | -0.382 | -0.226 | -1.14 | -0.0209 | -0.094 | 0.00413 | -0.106
CTTCTAC | -0.42 | -0.251 | -0.443 | -2.4 | -0.0624 | -0.76 | -0.633 | -0.109 | -0.126 | -0.237
CGTTGAC | 0.0939 | -0.153 | -0.164 | -0.0444 | -0.105 | -0.513 | 0.127 | -0.1 | -0.146 | -0.203
